Measured values published in the RNAGym collection of RNA variant scans (doi:10.1093/nar/gkz1192).
The source gives no read counts; variants with many changes may rest on few reads.

B1: CPEB3 Ribozyme (parent)
chain: UAACAGGGGGCCACAGCAGAAGCGUUCACGUCGCAGCCCCUGUCAGAUUCUGGUGAAUCUGCGAAUUCUGCUGUAUAUCUC

Variants of: B1
Experiment: self-cleavage, relative activity (ratio to wild type); higher = more cleavage; in vitro, sequencing
Procedure, shortened: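 For each CPEB3 ribozyme variant, relative activity is its cleaved/total read fraction divided by the unmutated ribozyme's. Barcoded error-prone PCR libraries were transcribed by T7 RNA polymerase (5 hours, 37°C) and held in DNase I for 15 min before an EDTA stop, with cleavage occurring throughout. Template-switching reverse transcription and Illumina sequencing were used to read the RNAs. A 5-read minimum applied, and results are the mean of three batches.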
With A21G C40A U80C the self-cleavage was 0.1.
A21G A47G U49G A75U showed a self-cleavage of 0.1.
A21G G46A U54C U60C showed a self-cleavage of 0.08.
For A21G C34G A45U, the self-cleavage was 0.05.
In the case of A21G G33A A45G U58G U80C, the self-cleavage is reported as 0.26.
With A21G G33U A35U U54G the self-cleavage was 0.17.
A20U U48C U76C U78C showed a self-cleavage of 0.21.
For A20U U31C A35U A64G, the self-cleavage was 0.14.
A21G G36U A57G A77U gave a self-cleavage of 0.06.
A21G C32U C40G A77C showed a self-cleavage of 0.2.
A21G A45G U60A showed a self-cleavage of 0.2.
A21G G30A C39A U54A C59A U67C showed a self-cleavage of 0.05.
Work on A21G C32G A35U yielded a self-cleavage of 0.4.
With A21G C40U A56G U66A the self-cleavage was 0.09.
Work on A20U U26C A45U G53C A77G yielded a self-cleavage of 0.09.
A21G G22U G33C U41C G55U gave a self-cleavage of 0.07.
Work on A21G A65G G70U yielded a self-cleavage of 0.16.
Work on A21G G61U U74A yielded a self-cleavage of 0.72.
In the case of A21G A47G U66G, the self-cleavage is reported as 0.34.
In the case of A21G A57U U60C, the self-cleavage is reported as 0.12.
A21G G24C A35U G36U U67A U76C U78A showed a self-cleavage of 0.06.
Variant A21G G53A C62G U76C has a self-cleavage of 0.2.
Work on A21G A28G A57G yielded a self-cleavage of 0.15.
A21G G52U U54A U72C gave a self-cleavage of 0.5.
A21G G52A U66C showed a self-cleavage of 1.16.
In the case of A21G A35G U43C A45U A56G U80C, the self-cleavage is reported as 0.49.
Work on A21C A47U U51G U66A yielded a self-cleavage of 0.16.
Work on A21G C23G A45G yielded a self-cleavage of 0.19.
In the case of A20U U48C A64G, the self-cleavage is reported as 0.22.
For A21G G22A U26C C59G, the self-cleavage was 0.08.
With A20U U43C U66C the self-cleavage was 0.07.
For A21G G33U C39G A47G, the self-cleavage was 0.07.
For A21G U25A C79U U80C, the self-cleavage was 0.31.
Variant A20U U41C A47U U58C C59A has a self-cleavage of 0.1.
A20U U48C U69C showed a self-cleavage of 0.07.
A21G G22A C23U U41C A45C C50A U67C showed a self-cleavage of 0.1.
Work on A21G A28G U66A yielded a self-cleavage of 0.12.
For A21G A28G A35U U48G, the self-cleavage was 0.25.
Work on A21G G42U U51A A56G yielded a self-cleavage of 0.04.
For A21G A45G U54C, the self-cleavage was 0.4.
For A20U U26C G33U U54C A64U, the self-cleavage was 0.23.
A21G A28G U41A A64G gave a self-cleavage of 0.14.
Variant A21G A57G U60A U72C has a self-cleavage of 0.11.
A21G G42A U66A showed a self-cleavage of 0.35.
In the case of A20U U26C U80G, the self-cleavage is reported as 0.09.
For A21G A28G A56G C59A U60C A64U U78A, the self-cleavage was 0.01.
A21G C44U A45G U78C showed a self-cleavage of 0.16.
For A20U U26C C81A, the self-cleavage was 0.19.
Work on A20U U43C A45G U69C yielded a self-cleavage of 0.07.
A20U U31A A35G A77G gave a self-cleavage of 0.61.
A21G G55U U76C gave a self-cleavage of 0.17.
For A21G A56U U69A U72A, the self-cleavage was 0.11.
For A20U U26C A28G U51C U69C U72C, the self-cleavage was 0.08.
For A20U U31C A57G U66C, the self-cleavage was 0.11.
A21G A45G U60A U66C G73C A75G showed a self-cleavage of 1.07.
Variant A20U U26C A28U C37U U43C U69C has a self-cleavage of 0.07.
In the case of A21G G52C U80G, the self-cleavage is reported as 0.58.
Variant A21G C34A U67A has a self-cleavage of 0.15.
In the case of A21C U43C U69C, the self-cleavage is reported as 0.1.
A21G A57U U72C U80C gave a self-cleavage of 0.25.
Variant A20U U60C U80A has a self-cleavage of 0.1.
For A21G A64G U72C, the self-cleavage was 0.19.
A21G G30A A56G U58C U80C showed a self-cleavage of 0.16.
Variant A21G A35U C37U U41C U54A U80C has a self-cleavage of 0.21.
For A21C U41C U69C, the self-cleavage was 0.21.
In the case of A20U U26C U76C, the self-cleavage is reported as 0.06.
In the case of A21G U25A A28G U41A U51A U80A, the self-cleavage is reported as 0.
Variant A21G A28G A45U U74C has a self-cleavage of 0.08.
Variant A20U U26A U41G A57G has a self-cleavage of 0.07.
With A21G A47U A56G A64G the self-cleavage was 0.33.
Variant A21C U26C U74A has a self-cleavage of 0.32.
A21G A28U U51C A56G C62U showed a self-cleavage of 0.1.
Work on A20U U43G U69C yielded a self-cleavage of 0.14.
A20U U51A U66C U80A showed a self-cleavage of 0.14.
In the case of A21G C23U A28U A35G U43C U78C, the self-cleavage is reported as 0.03.
A21G A35U U43G G52A C62U A64G U67A gave a self-cleavage of 0.09.
A21G G33U U49A A77G showed a self-cleavage of 0.05.
A20U U41C U51A G52U C62U U69A showed a self-cleavage of 0.13.
A21G A57G U69C showed a self-cleavage of 0.31.
Work on A21C A35U U43C A64G yielded a self-cleavage of 0.14.
In the case of A21G A28U A57G C79G, the self-cleavage is reported as 0.33.
Variant A21G A47G U49C U67C U69C U76G has a self-cleavage of 0.
A20U U43G U51A U72G U76C U80C showed a self-cleavage of 0.29.
In the case of A21G A28G C38G A45G U51A U78C, the self-cleavage is reported as 0.05.
With A21G A45G U74A A75G the self-cleavage was 0.43.
Variant A21G C32A A47G A75U has a self-cleavage of 0.08.
With A21G U25A A35G U41A U43C A57G the self-cleavage was 0.35.
With A21C C37U U48C the self-cleavage was 0.14.
For A21G C32U A65G U67C, the self-cleavage was 0.1.
A21G A35U U74C A77U showed a self-cleavage of 0.35.
With A20U U43C U48C U69A U72C the self-cleavage was 0.09.
With A20U U41C U66C the self-cleavage was 0.34.
A21G A35G A64G A65G gave a self-cleavage of 0.23.
Work on A21G A65G U78C yielded a self-cleavage of 0.35.
For A20U U25C A56G G73A, the self-cleavage was 0.28.
With A20U U49C U54C the self-cleavage was 0.16.
With A21G G36A C40U U72A the self-cleavage was 0.31.
With A20U U31G A64G U74C the self-cleavage was 0.09.
Work on A20U U41C U48C A56U yielded a self-cleavage of 0.07.
Work on A20U U25C U78C yielded a self-cleavage of 0.17.
A21G A57U U69C showed a self-cleavage of 0.17.
For A21G C23U U31G A47G A65G C68G U80C, the self-cleavage was 0.05.
Variant A20U U31C C32U U43A U69C C79A has a self-cleavage of 0.06.
For A21G A45G C68A, the self-cleavage was 0.44.
With A21G A45G U66C U69A U74C U78A the self-cleavage was 0.19.
A21G A28U C29A A35U U41A A64U showed a self-cleavage of 0.08.
A20U U51A A56U gave a self-cleavage of 0.44.
A21G A47G G63U U67A showed a self-cleavage of 0.15.
Variant A21G A28G U69A U80C has a self-cleavage of 0.05.
Work on A21G G33A A65G U76C yielded a self-cleavage of 0.38.
A20U U54A U80C showed a self-cleavage of 0.42.
A21G A28U U41G A56U A65G showed a self-cleavage of 0.
For A21G C34A A45U U49C U58A, the self-cleavage was 0.05.
Work on A21G C59U U69A yielded a self-cleavage of 0.13.
A20U U25C A45G U51A showed a self-cleavage of 0.17.
A21G A45G A56U showed a self-cleavage of 0.15.
In the case of A21G C37G C40A U49A U60C A75U, the self-cleavage is reported as 0.22.
A21G A56U U60C showed a self-cleavage of 0.18.
For A20U U31A U78G, the self-cleavage was 0.12.
A21G A35U U60A showed a self-cleavage of 0.2.
A21G A28U A35C U49A U67C gave a self-cleavage of 0.14.
With A21G A64U U67A the self-cleavage was 0.08.
In the case of A20U U41A U58A, the self-cleavage is reported as 0.15.
A20U U31A A35U A45G showed a self-cleavage of 0.14.
Work on A21G C40U A47G U78C yielded a self-cleavage of 0.24.
Work on A21G G24C A35G yielded a self-cleavage of 0.39.
Work on A21G A35G U41A U54A yielded a self-cleavage of 0.37.
For A20U U25C U26A U69A, the self-cleavage was 0.15.
With A20U U72A U78C the self-cleavage was 0.43.
With A20U U41G U51A U74C the self-cleavage was 0.08.
In the case of A21G A35G U60A U76C, the self-cleavage is reported as 1.1.
In the case of A21G A64G U74C A77U, the self-cleavage is reported as 0.66.
For A21G A47G A56U U66A U69C, the self-cleavage was 0.04.
Variant A20U U26C A45U has a self-cleavage of 0.35.
A20U U26A C39U U41C C44U A56G showed a self-cleavage of 0.09.
A21G C29U C40U A47G U54G A77U U80A gave a self-cleavage of 0.04.
A21G A35G C59U U66A U69G showed a self-cleavage of 0.21.
A21G C38U U49C A64C gave a self-cleavage of 0.07.
Variant A21G C62U A65G U72C has a self-cleavage of 0.18.
Variant A21G G22U A47G has a self-cleavage of 0.19.
With A21G A35G U67C the self-cleavage was 0.43.
A21G A28G U41A showed a self-cleavage of 0.24.
Variant A21C C40A U51A has a self-cleavage of 0.18.
Work on A21G G53U A56U A57G U60A U72C yielded a self-cleavage of 0.09.
A20U U43C A45G gave a self-cleavage of 0.45.
For A20U U41C A64C, the self-cleavage was 0.14.
For A21G A35U U54C, the self-cleavage was 0.14.
In the case of A21G A28G U43G U78C, the self-cleavage is reported as 0.25.
In the case of A20U U31C U72C, the self-cleavage is reported as 0.25.
With A21G A28G G33U C40U U49C U60A the self-cleavage was 0.05.
In the case of A21C A45G A57G C71A, the self-cleavage is reported as 0.07.
A21G A35G U43C U51A showed a self-cleavage of 0.56.
A21G A28U U31A A57G gave a self-cleavage of 0.16.
For A21G C27A A45G, the self-cleavage was 0.17.
With A21G A28U U51C U66C A77G the self-cleavage was 0.72.
For A21G A28G U49C U74A, the self-cleavage was 0.07.
A21G C29A A35U U60C A77G showed a self-cleavage of 0.05.
A20U U26C C37U showed a self-cleavage of 0.2.
With A21G A56G C62U U72A U78C the self-cleavage was 0.14.
With A21C A47G U78C the self-cleavage was 0.35.
For A21C U41C U43A A65G U78A, the self-cleavage was 0.14.
Variant A21C U48C U54C has a self-cleavage of 0.11.
In the case of A21G A65G G70A A75U, the self-cleavage is reported as 0.05.
Work on A20U U48C A64G U78C yielded a self-cleavage of 0.07.
Variant A21G U25A A35G A56U has a self-cleavage of 0.12.
Work on A20U U54G A57G A65G yielded a self-cleavage of 0.06.
Work on A21G G24U C38A U51C yielded a self-cleavage of 0.05.
